# Reference: PubChem BioAssay AID1346428 (National Center for Advancing Translational Sciences (NCATS), 2018)
# Several values for one entry are separate records, joined by “and”; a condition that tells them apart may be missing. Equal values may be shown once. Among all 48,000 compounds or so, about 1,200 (2.5%) were called active. About 2% were inconclusive and are not listed.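 The calls were made as follows: active = activation of at least 60% and not above a set upper limit (about 1 call in 100 departs from these limits); inconclusive = activation of 40% to 60%, or above that upper limit; inactive = activation under 40%.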 The list shows a part of the results. Where a SMILES comes first, the peptide text is derived from it. [ ]: non-standard residue; d: D form. pGlu = O=C1CC[C@@H](C(=O)O)N1
# Target: Probable G-protein coupled receptor 32 (Homo sapiens) (UniProt O75388)
# Chain of UniProt O75388 (O75388 whole entry, looked up): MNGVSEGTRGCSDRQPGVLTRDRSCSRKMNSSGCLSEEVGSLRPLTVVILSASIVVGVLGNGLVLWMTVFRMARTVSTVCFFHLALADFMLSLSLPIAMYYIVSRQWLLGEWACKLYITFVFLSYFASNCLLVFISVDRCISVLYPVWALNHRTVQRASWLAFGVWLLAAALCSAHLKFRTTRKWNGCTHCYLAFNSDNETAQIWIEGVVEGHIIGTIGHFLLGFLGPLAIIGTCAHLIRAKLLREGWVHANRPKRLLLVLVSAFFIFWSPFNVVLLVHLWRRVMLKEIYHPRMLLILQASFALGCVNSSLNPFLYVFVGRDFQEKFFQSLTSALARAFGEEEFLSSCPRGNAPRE
# Experiment: qHTS for Agonists of Human Resolvin D1 Receptor DRV1; also: 0% is about no effect
# Settings: CHO-K1 GPR32 beta-arrestin PathHunter luminescence, 90 min; at 76.9 µM; stronger effect = higher value; zero percent set by DMSO-only wells
# In short: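 Readings come from a cell-based beta-arrestin complementation format: CHO-K1 GPR32 stable cells (2,500/well) treated 90 min with compounds, then beta-Gal substrate added for 1 h before chemiluminescence imaging.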
row,Compound,activation
1,COc1ccc(-c2c(C)c3ccc(O)c(CN4CCC(C)CC4)c3oc2=O)cc1OC,inactive: -32.5%
2,Cc1cccc(N2CCN(C3=C(c4ccccc4)C(=O)c4ccccc43)CC2)c1C,inactive: 2.15%
3,COc1cc(OC)c(OC)cc1/C=C/c1nc2cc3ccccc3cc2c(=O)n1-c1ccccc1Br,inactive: -27.7%
4,Cc1ccc(CNC(=O)c2cc(=O)c3cc(C)ccc3o2)cc1,inactive: 28.9%
5,CN1CCN(c2ncnc3c2cnn3-c2cccc(Cl)c2)CC1,inactive: 44.4%
6,COc1cc2c(c(OC)c1)C(c1cccc(F)c1F)CC(=O)N2 (stereo unspecified),inactive: 10.1%
7,Cc1ccccc1-c1noc(-c2ccccc2OCC(=O)Nc2cccc([N+](=O)[O-])c2)n1,inactive: -9.13%
8,Cc1cccc(C)c1NC(=O)Cn1nnc(S(=O)(=O)c2ccccc2)c1N,inactive: 12.1%
9,O=C1CN(C(=O)c2ccc(S(=O)(=O)N3CCCC3)cc2)C(c2ccccc2)c2cc(F)ccc2N1 (stereo unspecified),inactive: -13.3%
10,N#Cc1c(-c2ccccc2)cc(-c2ccccc2)nc1SCC(O)CS(=O)(=O)Cc1ccc(Cl)cc1 (stereo unspecified),inactive: -2.18%
11,Cc1cc(NC(=O)Cc2ccccc2)cc(-c2nc3ccccc3o2)c1O,inactive: 29.4%
12,CCn1cc(/C=C(\NC(=O)c2cc(OC)c(OC)c(OC)c2)C(=O)NCCCn2ccnc2)c2ccccc21,inactive: 21.5%
13,CN(C)c1ccc(Nc2ncnc3c2c(-c2ccccc2)cn3-c2cccc(Cl)c2)cc1,inactive: -23%
14,CCOC(=O)c1cc2c(=O)n3ccccc3nc2n(C(C)C)c1=NC(=O)C(C)(C)Oc1ccc(Cl)cc1,inactive: -5.12%
15,Cc1c(C(=O)NCCN(C)C)oc2c1-c1nn(Cc3cccc(Cl)c3)cc1CC2,inactive: -12.4%
16,COC(=O)c1ccccc1NS(=O)(=O)c1cc2c(cc1C)N(C)CCO2,inactive: -6.54%
17,Cc1cccc(S(=O)(=O)c2cn(Cc3ccccc3)c3cc(N4CCCCC4)c(F)cc3c2=O)c1,inactive: -12.2%
18,CCN(Cc1nc(-c2ccc(OC)c(OC)c2)no1)S(=O)(=O)c1ccc(OC)cc1,inactive: 8.93%
19,COc1ccc(-c2nc3sc(CCNC(=O)c4ccc(Br)o4)c(C)n3n2)cc1,inactive: 29.3%
20,COc1ccc(CCC(=O)NC2CC(=O)N(c3ccc(F)cc3)C2)cc1 (stereo unspecified),inactive: -29.4%
21,CCN(CC)C(=O)c1c(-c2ccccc2)c(-c2ccccc2)nn(CC)c1=O,inactive: -17.9%

row,Compound,activation
1,COc1ccccc1N1CCN(C(=O)CN2C(=O)COc3ccc(S(=O)(=O)N4CCOCC4)cc32)CC1,inactive: -14.8%
2,O=C(CSc1nc(=O)n(Cc2ccccn2)c2c1CCC2)Nc1ccccc1,inactive: -15.5%
3,CN1[C@@H]2CC(OC(=O)[C@H](CO)c3ccccc3)C[C@H]1[C@@H]1O[C@@H]12 (stereo partly specified),inactive: -2.89%
4,COc1cc(CNC(=O)c2cnc(SC)nc2-c2ccccc2)cc(OC)c1OC,inactive: -6.52%
5,Cc1ccc(S(=O)(=O)C(CNS(=O)(=O)c2cc(F)ccc2F)c2cccs2)cc1 (stereo unspecified),inactive: -24.9%
6,CC(C)(C)OC(=O)N1CCC(c2c(C(=O)NC3CCCCC3)cnn2-c2ccc(F)cc2F)CC1,inactive: -12.1%
7,CSc1ccccc1NC(=O)CCS(=O)(=O)c1nc(-c2ccc3c(c2)OCO3)cc(C(F)(F)F)n1,inactive: -24%
8,COc1ccccc1NC(=O)CC(C)n1nc(C)cc1C (stereo unspecified),inactive: -7.27%
9,CCOc1ccc(C2c3c(-c4cc(C)ccc4O)n[nH]c3C(=O)N2Cc2cccnc2)cc1OCC (stereo unspecified),inactive: -23.6%
10,CCNC(=O)[C@@H]1CCCN1C(=O)[C@H](CCCN=C(N)N)NC(=O)[C@H](CC(C)C)NC(=O)CNC(=O)[C@H](Cc1ccc(O)cc1)NC(=O)[C@H](CO)NC(=O)[C@H](Cc1c[nH]c2ccccc12)NC(=O)[C@H](Cc1cnc[nH]1)NC(=O)[C@@H]1CCC(=O)N1 ([pGlu]HWSYGLRP-NHEt),inactive: 2.03%
11,Cc1ccc2c(=O)c(C(=O)c3cccc(Cl)c3)cn(CC(=O)NC3CCCCC3)c2n1,inactive: -3.58%
12,COc1ccc(OC)c(CCNC(=O)CCCn2c(=O)c3cccn3c3ccc(F)cc32)c1,inactive: -8.91%
13,Cc1cc(F)ccc1NC(=O)CCS(=O)(=O)c1cc2c(cc1C)NC(=O)CO2,inactive: -2.39%
14,COc1ccccc1Nc1ncc2c(n1)CCN(Cc1ccc(C)s1)C2,inactive: 30.6%
15,CCOC(=O)N1CCC(NC(=O)c2c(C)nn(-c3cccc(C)c3)c2-n2cccc2)CC1,inactive: 9.72%
16,COc1ccc(-n2nc3c(N4CCC(C(=O)NCc5ccccc5C)CC4)nnc(C)c3c2C)cc1,inactive: -17.4%
17,CCOC(=O)c1ccc(NC(=O)CSc2nc3c(c(=O)[nH]2)CN(Cc2ccccc2)CC3)cc1,inactive: -22.4%
18,CC(C)(C)C(=O)NCCc1nc2ccccc2n1CCCCOc1ccccc1,inactive: -7.63%
19,Cc1ccc(N(CC(=O)N2CCN(c3ccc(F)cc3)CC2)S(=O)(=O)c2c(C)noc2C)cc1,inactive: -4.27%
20,O=S(=O)(NCc1ccc(F)cc1)c1ccc(N2CCCCS2(=O)=O)cc1,inactive: 18.5%
21,Cc1ccc(CSc2cn(CC(=O)N3CCCCCC3)c3ccccc23)cc1,inactive: -31.8%

row,Compound,activation
1,COc1cccc(CNC(=O)Cn2ncc3c(=O)oc4ccccc4c32)c1,inactive: -4.44%
2,CCOc1ccccc1CNCCCSc1nnnn1C,inactive: 5.11%
3,CCCN(Cc1cc2cccc(C)c2[nH]c1=O)C(=O)c1cccc(Cl)c1,inactive: -9.06%
4,CCOC(=O)c1c(NC(=O)c2cc(=O)c3cc(C)ccc3o2)sc2c1CCCC2,inactive: -7.46%
5,COc1ccc(Cl)cc1NC(=O)CSC1=Nc2ccccc2C2=NC(CCC(=O)NCc3ccco3)C(=O)N12 (stereo unspecified),inactive: -12.5%
6,Cc1ccc(Cn2c(CCNC(=O)c3cccc(C)c3)nc3ccccc32)cc1,inactive: -13.6%
7,Cc1ccc(S(=O)(=O)N2CCN(Cc3ccccc3Cl)CC2)cc1,inactive: -16.8%
8,NC(=O)c1cnccn1,inactive: 8.95% and inactive: -7.03%
9,Cc1cccc(NC(=O)CN2C(=O)C3(SCC(=O)N3c3ccccc3)c3ccccc32)c1 (stereo unspecified),inactive: -2.5%
10,O=C(NCCc1ccccc1)c1ccc2c(c1)N(Cc1ccc(F)cc1)C(=O)CS2,inactive: -7.43%
11,O=C(NCCC1=CCCCC1)c1ccc2c(c1)sc1nc(-c3ccc(F)cc3)cn12,inactive: -15.7%
12,COc1ccc(NC(=O)c2cccc(N3CCCS3(=O)=O)c2)c(OC)c1,inactive: 2.79%
13,CC(C)Cn1cc(NC(=O)NCc2cccc(Cl)c2)c2ccccc2c1=O,inactive: -77.6%
14,CCN(CC)c1ccc(NC(=O)CN2CCN(CC(=O)Nc3ccc(Cl)cc3)CC2)cc1,inactive: -17.7%
15,Cc1ccc2oc(C(=O)Nc3sc4c(c3C(=O)NCC3CCCO3)CCC4)cc(=O)c2c1 (stereo unspecified),inactive: 9.3%
16,Nc1nc(N)c(N=O)c(OCC2CCCCC2)n1,inactive: -11.6%
17,COc1cc(OC)c(C2CC(=O)Nc3ccc4ccccc4c32)cc1OC (stereo unspecified),inactive: 6.88%
18,COCCNC(=O)Cn1nc(-c2ccccc2)c2ccccc2c1=O,inactive: -5.65%
19,CC(NC(=O)c1cc2c(=O)n3ccccc3nc2n(C(C)C)c1=N)c1ccccc1 (stereo unspecified),inactive: 7.27%
20,CC(NC(=O)Cn1c(=O)oc2cc(S(=O)(=O)N3CCCCCC3)ccc21)c1ccccc1 (stereo unspecified),inactive: -23.6%
21,COC(=O)c1ccccc1NC(=O)c1nc(-c2ccc(C)cc2)n2c1CCCCC2,inactive: 8.93%

row,Compound,activation
1,Cc1ccc(CCNS(=O)(=O)c2ccc3c(c2)C(C(C)C)C(=O)N3)cc1 (stereo unspecified),inactive: 13.2%
2,COc1cc(NC(=O)CN2C(=O)CCc3cc(Br)ccc32)cc(OC)c1OC,inactive: 15.9%
3,COc1cccc(Cn2c(=O)n(CC3CCC(C(=O)NC(C)C)CC3)c(=O)c3sccc32)c1 (stereo unspecified),inactive: 13.7%
4,Cc1cn(C)c(CC(=O)NCc2ccc(Cl)cc2)c1C(=O)O,inactive: -5.95%
5,Cc1cccc(OC(=O)CSc2nnc(-c3ccc4c(c3)OCO4)o2)c1C,inactive: -8.31%
6,Cc1ccc(C2=NN(CC(=O)NCCc3ccccc3)C(=O)CC2)cc1,inactive: -12.1%
7,CC(=O)N1c2ccccc2C(=O)C1N1CCN(c2cccc(Cl)c2)CC1 (stereo unspecified),inactive: -0.0391%
8,Cc1cccc(-c2noc(-c3cc(C(C)C)[nH]n3)n2)c1,inactive: -11.8%
9,COCCCNC(=O)c1cn(CC(C)C)c(=O)c2c1c1ccccc1n2C,inactive: -12.2%
10,CCOc1ccc(OCC)c(NC(=O)c2nnn(Cc3cc(Br)ccc3OC)c2N)c1,inactive: -7.56%
11,CC(=O)c1ccc(N2CCN(C(=O)C3CCN(S(=O)(=O)c4ccc(Br)s4)CC3)CC2)cc1,active: 86.5%
12,COCCn1c(CNC(=O)c2cccc(N(C)C)c2)nc2cccnc21,inactive: -5.12%
13,COc1cc(OC)c(NS(=O)(=O)c2cc3c(cc2C)NC(=O)CO3)cc1Cl,inactive: 2.93%
14,Cc1ccc(NC(=O)c2nc(S(C)(=O)=O)ncc2N(Cc2ccco2)Cc2ccccc2F)c(C)c1,inactive: -7.2%
15,Cc1nc2scc(C)n2c(=O)c1S(=O)(=O)Nc1cccc(O)c1,inactive: 2.74%
16,CCN(Cc1ccccc1)C(=O)CCS(=O)(=O)c1cc2c(cc1Cl)NC(=O)CO2,inactive: -6.34%
17,Cc1ccc(C)c(NC(=O)Nc2nnc(N(CC(C)C)CC(C)C)s2)c1,inactive: -27.2%
18,CCOC(=O)c1ccc(CN(Cc2ccc(F)cc2)S(=O)(=O)c2ccc(F)cc2)cc1,inactive: -30.4%
